The campaign covered roughly 7,900 compounds. About 400 (5.1%) showed an effect of 50% or more. This is one part of the list.

The target of this assay is Parkinson's disease protein 7 (PARK7/DJ1) (human, UniProt Q99497). Description: primary screen, percent inhibition; read as competition with a fluorescent probe by fluorescence polarization; higher = more effect of the substance. As to conditions: 100 µM. An outline of the steps: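 Covalent fragments at 100 μM final were incubated 2 h with 0.2 μM PARK7, then 20 nM probe JYQ-107 added for a further 2 h. Fluorescence polarization read at 480/520 nm; relative FP loss versus reference controls gave remaining enzyme activity.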
Parkinson's disease protein 7 (PARK7/DJ1), sequence (Q99497 whole entry, looked up, the tested form may be a part): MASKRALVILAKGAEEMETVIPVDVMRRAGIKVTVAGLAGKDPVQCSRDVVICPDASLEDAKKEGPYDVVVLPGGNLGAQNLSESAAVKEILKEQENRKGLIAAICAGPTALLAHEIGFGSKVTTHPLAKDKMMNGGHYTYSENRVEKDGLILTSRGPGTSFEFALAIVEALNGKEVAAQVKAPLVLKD
Turning to `C=CC(=O)NC(c1cnn(C)c1)C(F)(F)F` (stereo not drawn), the Inhibition % was 3.17%.

Consider `Cc1nnc(CN(C#N)c2ccc(F)c(Cl)c2)o1`, for which the Inhibition % is given as 5.26%.

Turning to `Cc1cccc(C)c1N1C(=O)CN=C1S`, the Inhibition % amounted to 1.33%.

In the case of `CC1(C)OB(c2ccc(CSc3ncn[nH]3)cc2)OC1(C)C`, the Inhibition % was determined as 11.5%.

As to `Cc1ccc(OC(=O)N2CCOCC2)cc1`, the Inhibition % stood at 5.06%.

As for `O=C(OCc1ccccc1)N1CCCC2(CO2)C1` (stereo not drawn), the Inhibition % was 5.34%.

`Cn1ncc(C2CC2)c1B1OC(C)(C)C(C)(C)O1`: the Inhibition % came to 4.29%.

Turning to `CC1=NOC(=O)C1CC(=O)O` (stereo not drawn), the Inhibition % is 99%.

As to `C=CC(=O)N1CCC(C(=O)O)(c2ccc(C)cc2)CC1`, the Inhibition % came to 7.61%.

`CCN1CCN(c2oc(C3CC3)nc2C#N)CC1`: the Inhibition % came out at 1.62%.

Take `Cc1cccc(OCCNC(=O)n2ccnc2)c1`: the Inhibition % amounted to 92.6%.

In the case of `N#CC1(NC(=O)CCl)CCCCC1`, the Inhibition % is on record as 21.5%.

As to `N#Cc1ncn(CC(=O)Nc2cc(F)ccc2F)n1`, the Inhibition % is reported as 11.5%.

Consider `C=CC(=O)NCc1nc2c(s1)COCC2`, for which the Inhibition % is listed as 5.36%.

In the case of `C=CC(=O)N1CCC(C(=O)N(C)c2ccccc2)C1` (stereo not drawn), the Inhibition % turned out to be 9.62%.

Consider `N#Cc1c(CN2C(=O)CCC2=O)cn2ccccc12`, for which the Inhibition % worked out at 11.1%.

As for `CSc1ccc(CN(C)C(=O)CCl)cc1`, the Inhibition % was determined as 14.4%.

Regarding `O=C(Nc1ccccc1)NC1CN(c2ccccc2)C1=O` (stereo not drawn), the Inhibition % is reported as 5.74%.

As for `O=C(N[C@H]1c2ccccc2C[C@H]1O)c1cccnc1S`, the Inhibition % is given as 32.2%.

Consider `Cl.O=C(CCl)N1CCN(Cc2ccsc2)CC1`, for which the Inhibition % amounted to 7.84%.

With `CNC(=O)c1ccc(B2OC(C)(C)C(C)(C)O2)c(Cl)c1`, the Inhibition % is 7.89%.

Consider `CCCc1nnc(NS(=O)(=O)c2cccc(S(=O)(=O)F)c2)o1`, for which the Inhibition % is 98.8%.

Take `Cc1ccc(C=C(C#N)C(N)=O)o1`: the Inhibition % was determined as 7.03%.

As to `C=CC(=O)N1CCSC(CC)(CC)C1`, the Inhibition % turned out to be 13.1%.

For the compound `O=C(O)C=CC(=O)Nc1ccc2[nH]ncc2c1`, the Inhibition % was found to be 77.7%.

Regarding `C=CC(=O)N1CCCCC(SCC)C1` (stereo not drawn), the Inhibition % is listed as 10.8%.

For the compound `C=CC(=O)N1CCCN(c2ccccn2)CC1`, the Inhibition % is recorded as 12.3%.

For `COC(Cc1cccc(F)c1)OC`, the Inhibition % stood at 15.9%.

For `O=C(Nc1ccc(Cl)cc1)N1CCCCC1C1OCCO1` (stereo not drawn), the Inhibition % stood at 5.3%.

For the compound `Cc1cc(B2OC(C)(C)C(C)(C)O2)sn1`, the Inhibition % was determined as 0.986%.

`C=CC(=O)NC(C)Cc1cc(C)nn1-c1ccccc1` (stereo not drawn): the Inhibition % is listed as 6.26%.

As to `Cc1ccnc(C#N)c1C`, the Inhibition % amounted to 5.08%.

For `Cc1c(C#N)c(NC(=O)CCl)n(C2CCCC2)c1C`, the Inhibition % stood at 4.13%.

As to `C=CC(=O)NC1(C(=O)N2CCN(C)CC2)CCCC1`, the Inhibition % is listed as 5.2%.

As to `C=CC(=O)N1CCn2c(Cc3cccc(F)c3)nnc2C1`, the Inhibition % is listed as 10.9%.

With `O=C1NC(C2CCCO2)C12CCC2` (stereo not drawn), the Inhibition % was -2.83%.

For the compound `C=CC(=O)N1CCCN(C)c2cc(F)ccc21`, the Inhibition % is on record as 12.5%.

On to `CCOc1cnc(C#N)cn1`, for which the Inhibition % amounted to 1.65%.

Regarding `c1ccc(COCC[C@H]2CO2)cc1`, the Inhibition % came out at 17.1%.

As to `C=CC(=O)N(C)Cc1nccn1Cc1ccccc1.O=C(O)C(F)(F)F`, the Inhibition % is -4.78%.

As to `NCCCC1(C2OCCO2)CCOCC1`, the Inhibition % amounted to 12.3%.

For `Cc1ccc(S(=O)(=O)n2cccn2)cc1C`, the Inhibition % is recorded as 10.3%.

Turning to `CC(NC(=O)CCl)c1ccc(Cl)cc1` (stereo not drawn), the Inhibition % was 6.77%.

On to `CS(=O)(=O)OCC1CCCCO1` (stereo not drawn), for which the Inhibition % was 12.7%.

`CCc1noc(CC)c1CNCc1ccccc1B(O)O`: the Inhibition % came out at 2.29%.

Regarding `CNC1CCCN(C(=O)C=Cc2cccnc2)C1` (stereo not drawn), the Inhibition % was determined as 4.11%.

In the case of `Cn1nnc2cc(CN3CCC(B(O)O)C3)ccc21` (stereo not drawn), the Inhibition % was 16%.

Regarding `COc1cccc2cc(B3OC(C)(C)C(C)(C)O3)oc12`, the Inhibition % turned out to be 2.09%.

As to `CN(C)C=C(C#N)c1nc2ccccc2[nH]1`, the Inhibition % was 1.92%.

Turning to `C=CC(=O)NCC1CC(C)OC(C)C1` (stereo not drawn), the Inhibition % came out at 11.1%.

On to `O=C(O)c1ccc(CCCl)cc1`, for which the Inhibition % is recorded as 8.12%.

On to `NC(=O)c1ccccc1OCCCl`, for which the Inhibition % is given as 2.27%.

Regarding `C=C(Cl)COc1cccc2c1NC(=O)CO2`, the Inhibition % was 5.93%.

Regarding `C=CC(=O)NCC1(C(N)=O)CCCC1`, the Inhibition % is listed as 9.87%.

Regarding `CC1(C)OB(c2cccc(OCCn3ccnc3)c2)OC1(C)C`, the Inhibition % turned out to be 7.89%.

With `CN1CCC(C)(CCl)CC1.Cl`, the Inhibition % came to 3.9%.

With `CN(C(=O)c1ccc(C#N)[nH]1)c1ccc(F)c(F)c1`, the Inhibition % is listed as 2.84%.

As for `N#CCCN(C(=O)CCl)c1ccccc1`, the Inhibition % is 14.9%.

For the compound `COc1cc(S(=O)(=O)n2ccc(C)n2)ccc1F`, the Inhibition % is 13.7%.

For the compound `C1CC(C2OCCO2)CCN1`, the Inhibition % came out at 3.58%.

Regarding `Cc1nc(C#N)c(NC(=O)CSCC2CCCCO2)o1` (stereo not drawn), the Inhibition % worked out at 12.5%.

Take `Cc1ccn(S(=O)(=O)c2ccc(C(C)(C)C)cc2)n1`: the Inhibition % is 4.34%.

In the case of `C=CC(=O)N1CCC(n2ccc(C(F)(F)F)n2)CC1`, the Inhibition % was found to be 7.61%.

In the case of `O=C1OCCC12CCCC2`, the Inhibition % is 5.08%.

With `C=CC(=O)N1CCc2c(F)cccc2C1`, the Inhibition % stood at 6.26%.

Regarding `Cc1cccc(CC2CN(c3nccnc3C#N)C2)c1`, the Inhibition % came out at 8.09%.

Turning to `Cc1cc(C)nc(S)c1`, the Inhibition % worked out at 6.52%.

Consider `C=CC(=O)N1CCOCC1c1nnc(C(C)C)o1` (stereo not drawn), for which the Inhibition % was determined as 10%.

With `O=C(CCl)c1c[nH]c2ccc(F)cc12`, the Inhibition % is given as 3.33%.

`C/C(=C/B1OC(C)(C)C(C)(C)O1)c1ccccc1Cl`: the Inhibition % turned out to be 11.7%.

On to `N#Cc1cc(-n2cccn2)ccn1`, for which the Inhibition % was found to be 29.7%.

On to `C=CC(=O)Nc1cccc2c1CCN(S(C)(=O)=O)C2`, for which the Inhibition % was 3.82%.

Take `N#Cc1ccc2c(n1)CCCC2`: the Inhibition % is given as 7.43%.

As to `N#Cc1ccc(Oc2ccccc2)cn1`, the Inhibition % is given as 4.99%.

In the case of `Cc1c(Cl)cccc1NC(=O)CNC(=O)CCl`, the Inhibition % was -0.758%.

As to `C=CC(=O)Nc1ccc2c(c1)CCCC(=O)N2`, the Inhibition % is listed as 4.19%.

In the case of `CC1(C)OB(c2sccc2C2CC2)OC1(C)C`, the Inhibition % worked out at 1.99%.

For the compound `CN1CCc2cc(B3OC(C)(C)C(C)(C)O3)ccc21`, the Inhibition % is recorded as 0.886%.

With `N#Cc1ccc(NCC2CC(F)(F)C2)cn1`, the Inhibition % is given as 10.7%.

As for `CCc1nc(C)c(C#N)c(S)n1`, the Inhibition % is given as 6.36%.

Regarding `N#Cc1ncn(CCC(=O)Nc2ccc(Cl)cc2F)n1`, the Inhibition % was 7.78%.

As to `C=CC(=O)N1CC(CC(=O)N(C)C)c2cc(Cl)ccc21` (stereo not drawn), the Inhibition % is 1.16%.

Regarding `CC(C)(C)N(Cc1cccc(F)c1)C(=O)CCl`, the Inhibition % came out at 3.94%.

With `C=CC(=O)N1CCC(=O)Nc2ccccc21`, the Inhibition % was determined as 9.57%.

For the compound `CS(=O)(=O)C(C#N)=Cc1cccc(O)c1`, the Inhibition % was 6.68%.

For the compound `CC(NC(=O)c1cccnc1S)C1CCOCC1` (stereo not drawn), the Inhibition % was 6.34%.

On to `CC1CC(N(C)Cc2ccc(F)cc2)C(=O)O1` (stereo not drawn), for which the Inhibition % is listed as 11.5%.

On to `C=CC(=O)N1CCC(n2cc(Cl)cn2)CC1`, for which the Inhibition % is recorded as 7.37%.

Take `C=CC(=O)N1CCN(c2nncn2C)CC1`: the Inhibition % is reported as 12.4%.

Regarding `C=CC(=O)N1CCOCC1c1ncnn1Cc1ccccc1` (stereo not drawn), the Inhibition % was 6.08%.

Regarding `CC1(C)OB(CC2CNC2)OC1(C)C.O=C(O)C(F)(F)F`, the Inhibition % worked out at 3.69%.

Regarding `CC(Cl)c1nnnn1C` (stereo not drawn), the Inhibition % was 3.71%.

As to `C=CC(=O)NCc1c(Cl)oc2ccccc12`, the Inhibition % was found to be 8.21%.

With `CSc1ccc(OCC2CO2)cc1` (stereo not drawn), the Inhibition % amounted to 8.38%.

Take `C=CC(=O)NC1CCN(c2ccc(C(F)(F)F)cn2)CC1`: the Inhibition % amounted to 4.21%.

`C=CC(=O)NCC1(C)OCCc2sccc21` (stereo not drawn): the Inhibition % is listed as 16.4%.

For `C=CC(=O)NC1(CCO)CC1`, the Inhibition % came to 6.37%.

On to `C=CCNC(=O)C(C#N)=Cc1ccc(O)cc1`, for which the Inhibition % is recorded as 9.67%.

As to `C=CC(=O)N1CCN(Cc2ccsc2)CC1`, the Inhibition % is given as 12.3%.

`Cc1ccc(O)c(C(=O)N2CCC(C3OCCO3)CC2)c1`: the Inhibition % came out at 7.3%.

As to `C=CC(=O)N1CCSC(C)CC1` (stereo not drawn), the Inhibition % was 5.41%.

In the case of `CC1CCN(c2ccc(C#N)nc2)C(C)C1` (stereo not drawn), the Inhibition % is recorded as 2.82%.

For the compound `Cn1ccnc1C1NC(=O)C1(C)C` (stereo not drawn), the Inhibition % was 3.42%.

For `N#Cc1ccccc1OCC1CO1` (stereo not drawn), the Inhibition % is recorded as 8.28%.

On to `Cc1c(Br)cncc1B1OC(C)(C)C(C)(C)O1`, for which the Inhibition % worked out at 3.85%.

Turning to `CN(C)c1ccc(Cl)cc1NC(=O)CCl`, the Inhibition % is reported as 1.39%.

For the compound `C=CC(=O)NCCc1nc2c(C)cccc2o1`, the Inhibition % amounted to 9.51%.

Take `Cc1cc(C)cc(OC(=O)N2CCOCC2)c1`: the Inhibition % came out at 6.2%.

As for `O=C(CCl)Nc1cc(Cl)cc(Cl)c1`, the Inhibition % is given as 9.47%.

For the compound `Cn1cc(C=C(C#N)C(=O)NCc2ccco2)cn1`, the Inhibition % is 8.57%.

For the compound `CN(C)c1ccc(C=C(C#N)C(=O)O)cc1`, the Inhibition % is listed as -0.661%.

`O=C1OCCC1N1CCN(c2ccccc2O)CC1` (stereo not drawn): the Inhibition % came to 5.67%.

For `N#Cc1nc(NC2CCC(CN)C2)ccc1Cl` (stereo not drawn), the Inhibition % came to 15.8%.

Turning to `Fc1ccccc1COCC1CO1` (stereo not drawn), the Inhibition % stood at 10.3%.

For the compound `Cc1nc(C#N)c(NCc2ccc(F)cc2)o1`, the Inhibition % is 11.5%.

For `O=C(CN1C(=O)CCC1=O)NCc1ccc(F)cc1`, the Inhibition % is on record as 5.18%.

Turning to `CC1(C)OB(c2cnc(N)c(F)c2)OC1(C)C`, the Inhibition % is 8.39%.

Consider `CCn1nc(C)c(C(=O)CCl)n1`, for which the Inhibition % amounted to 13.1%.

In the case of `CNC(=O)C1CCCN(C(=O)C=Cc2ccc(C)nc2)C1` (stereo not drawn), the Inhibition % stood at 4.85%.

Take `Cc1ccoc1C=C(C#N)C(=O)NCCc1ccccc1`: the Inhibition % stood at 0.974%.

Consider `Cn1c(=O)c2c(ncn2C2CCOC2=O)n(C)c1=O` (stereo not drawn), for which the Inhibition % came out at 2.57%.

With `C=CC(=O)N1CN(C)C(=O)C1C` (stereo not drawn), the Inhibition % was found to be 8.81%.

With `O=C1CN(C(=O)C=Cc2c(F)cccc2F)CCN1`, the Inhibition % was 5.08%.

As for `C=CC(=O)N1CCN(C)C(c2nccn2C)C1` (stereo not drawn), the Inhibition % is 15.3%.

Consider `C=CC(=O)NCc1cnc(-c2ccccc2)s1`, for which the Inhibition % was 8.62%.

As for `C=CS(=O)(=O)c1ccc(C#N)cc1`, the Inhibition % was determined as 6.58%.

(Values after PMC9574860, “Chemical Toolkit for PARK7: Potent, Selective, and High-Throughput” (Journal of Medicinal Chemistry, 2022).)
